One assay deals with HSkMC. The assay is described as follows: cytotoxicity call (relative viability < 0.9). The note with it: 10 µM.
Another assay deals with S. aureus RN4220. The assay is described as follows: growth inhibition call (relative growth <= 0.2). Conditions: 50 µM.

This is one part of the list.

`COc1ccc2c3c(n(c2c1)C)[C@H](CO)N(C[C@]13CCN(CC1)C(=O)Nc1ccc(cc1F)F)C(=O)Nc1ccc(cc1)F`: the cytotoxicity call with HSkMC is “inactive”. In addition, in the assay on S. aureus RN4220, the growth inhibition call was “inactive”.
In the case of `O=C1C[C@@H](c2ccc(O[C@@H]3O[C@H](CO)[C@@H](O)[C@H](O)[C@H]3O)cc2)Oc2cc(O)ccc21`, the cytotoxicity call in the assay with HSkMC is “inactive”. Also, in the assay on S. aureus RN4220, the growth inhibition call is “inactive”.
Regarding `COc1ccc(C#Cc2ccc([C@H]3[C@@H](CO)N4CCCCN(S(=O)(=O)c5cn(C)cn5)C[C@H]34)cc2)cc1`, in the assay with HSkMC, the cytotoxicity call is “active”. For the same molecule, in the assay with S. aureus RN4220, the growth inhibition call is “inactive”.
In the same order, the values of `CC(=O)N(C[C@@H](O)CO)c1c(I)c(C(=O)NC[C@@H](O)CO)c(I)c(C(=O)NC[C@@H](O)CO)c1I` are “inactive” and “inactive”.
In the same order, the values of `Cc1ccccc1S(=O)(=O)N1C[C@H](O)COC[C@H]2O[C@@H](CC(=O)NCCc3ccccc3)CC[C@@H]21` are “inactive” and “inactive”.
In the same order, the values of `COc1ccc(-c2coc3cc(O)ccc3c2=O)c(O)c1O` are “inactive” and “inactive”.
As to `C[C@@H]1CN([C@@H](C)CO)C(=O)Cc2cc(NS(=O)(=O)c3ccccc3)ccc2O[C@@H]1CN(C)S(=O)(=O)c1cn(C)cn1`, the cytotoxicity call in the assay with HSkMC is “inactive”. For the same molecule, the growth inhibition call with S. aureus RN4220 was “inactive”.
In the case of `Cc1cccc(C)c1OC[C@@H](C)N`, the cytotoxicity call with HSkMC is “inactive”. Also, the growth inhibition call with S. aureus RN4220 is “inactive”.
On to `Cc1noc(C)c1NC(=O)N(C)C[C@@H]1Oc2ccc(NC(=O)c3ccncc3)cc2CC(=O)N([C@H](C)CO)C[C@@H]1C`, for which the cytotoxicity call in the assay with HSkMC is “inactive”. Further, the growth inhibition call with S. aureus RN4220 was “inactive”.
Consider `O=C(C[C@H]1C[C@@H]2c3cc(NC(=O)C4CCOCC4)ccc3O[C@@H]2[C@@H](CO)O1)NCc1ccc(Cl)cc1`, for which the cytotoxicity call in the assay on HSkMC was “inactive”. Further, the growth inhibition call with S. aureus RN4220 is “inactive”.
Turning to `CCCC#Cc1ccc2c(c1)O[C@@H](CN(C)S(=O)(=O)c1cccc(OC)c1)[C@@H](C)CN([C@H](C)CO)S2(=O)=O`, in the assay on HSkMC, the cytotoxicity call was “inactive”. Besides, in the assay with S. aureus RN4220, the growth inhibition call was “inactive”.
Regarding `Cc1cc(C(=O)Nc2cccc3c2O[C@@H](CN(C)C(=O)Nc2ccc4c(c2)OCO4)[C@H](C)CN([C@@H](C)CO)C3=O)n(C)n1`, the cytotoxicity call in the assay with HSkMC is “inactive”. Moreover, the growth inhibition call in the assay on S. aureus RN4220 was “inactive”.
With `Cc1noc(C)c1S(=O)(=O)Nc1ccc2c(c1)CC(=O)N([C@@H](C)CO)C[C@H](C)[C@@H](CN(C)Cc1ccc(C(=O)O)cc1)O2`, the cytotoxicity call in the assay with HSkMC was “inactive”. Further, the growth inhibition call in the assay on S. aureus RN4220 is “inactive”.
On to `C[C@@H]1CN([C@@H](C)CO)C(=O)c2cc(NC(=O)Nc3cccc4ccccc34)ccc2O[C@H]1CN(C)CC1CCCCC1`, for which the cytotoxicity call with HSkMC is “inactive”. Further, the growth inhibition call in the assay with S. aureus RN4220 is “inactive”.
Take `C[C@H](CO)N1C[C@H](C)[C@@H](CN(C)Cc2ccc(Cl)c(Cl)c2)Oc2ccc(NS(=O)(=O)c3ccc(F)cc3)cc2CC1=O`: the cytotoxicity call in the assay on HSkMC is “inactive”. Also, the growth inhibition call in the assay with S. aureus RN4220 was “inactive”.
Regarding `C[C@H]1CN([C@@H](C)CO)C(=O)c2cc(NS(=O)(=O)c3ccccc3)ccc2O[C@H]1CN(C)S(C)(=O)=O`, the cytotoxicity call in the assay with HSkMC is “inactive”. For the same molecule, in the assay on S. aureus RN4220, the growth inhibition call is “inactive”.
On to `C[C@@H]1CCCCO[C@@H](CN(C)C(=O)C2CCCCC2)[C@H](C)CN([C@H](C)CO)C(=O)c2cc(NC(=O)c3ccncc3)ccc2O1`, for which the cytotoxicity call in the assay with HSkMC is “inactive”. Besides, in the assay with S. aureus RN4220, the growth inhibition call was “inactive”.
With `C[C@@H]1CN([C@H](C)CO)C(=O)Cc2cc(NC(=O)c3ccncc3)ccc2O[C@H]1CN(C)S(=O)(=O)c1cn(C)cn1`, the cytotoxicity call in the assay on HSkMC is “inactive”. The growth inhibition call with S. aureus RN4220 was “inactive”.
Regarding `C[C@@H]1CCCCO[C@H](CN(C)C(=O)Nc2ccccc2)[C@H](C)CN([C@H](C)CO)C(=O)c2cc(NC(=O)CCC(F)(F)F)ccc2O1`, the cytotoxicity call with HSkMC was “inactive”. Moreover, the growth inhibition call with S. aureus RN4220 is “inactive”.
In the case of `C[C@@H]1CN([C@H](C)CO)C(=O)c2cc(NC(=O)CCC(F)(F)F)ccc2O[C@@H](C)CCCCO[C@H]1CN(C)S(=O)(=O)c1cccs1`, the cytotoxicity call in the assay with HSkMC was “inactive”. The growth inhibition call in the assay with S. aureus RN4220 was “inactive”.
In the case of `COc1ccc(CN(C)C[C@H]2OCCCC[C@@H](C)Oc3ccc(NS(=O)(=O)c4c(C)noc4C)cc3C(=O)N([C@H](C)CO)C[C@@H]2C)cc1`, the cytotoxicity call with HSkMC was “inactive”. Moreover, the growth inhibition call in the assay on S. aureus RN4220 is “inactive”.
In the case of `C[C@@H]1CN([C@H](C)CO)S(=O)(=O)c2ccc(C#Cc3cccc(F)c3)cc2O[C@H]1CN(C)S(=O)(=O)c1ccccc1F`, the cytotoxicity call in the assay with HSkMC is “inactive”. Besides, the growth inhibition call in the assay with S. aureus RN4220 is “inactive”.
For the molecule `C[C@H](CO)N1C[C@H](C)[C@H](CN(C)Cc2ccc(Cl)c(Cl)c2)Oc2ccc(NS(=O)(=O)c3ccc(F)cc3)cc2C1=O`, in the assay with HSkMC, the cytotoxicity call is “inactive”. Further, the growth inhibition call in the assay on S. aureus RN4220 is “inactive”.
Regarding `C[C@H](CO)N1C[C@H](C)[C@H](CN(C)S(=O)(=O)c2ccc(C#N)cc2)Oc2ncc(C#CC(C)(C)O)cc2C1=O`, the cytotoxicity call with HSkMC was “inactive”. In addition, in the assay on S. aureus RN4220, the growth inhibition call is “inactive”.
Take `COc1ccc(CN(C)C[C@H]2OCCCC[C@@H](C)Oc3ccc(NS(=O)(=O)c4ccc(OC)cc4)cc3C(=O)N([C@@H](C)CO)C[C@H]2C)cc1`: the cytotoxicity call in the assay on HSkMC is “inactive”. Moreover, the growth inhibition call in the assay on S. aureus RN4220 is “inactive”.
As for `C[C@@H]1CCCCO[C@H](CN(C)C(=O)C2CCCCC2)[C@H](C)CN([C@H](C)CO)C(=O)c2cc(NC(=O)c3ccccc3)ccc2O1`, the cytotoxicity call in the assay on HSkMC was “inactive”. In addition, the growth inhibition call in the assay with S. aureus RN4220 is “inactive”.
With `C=CCOC(=O)[C@H]1[C@@H]2C(=O)O[C@@H](c3ccccc3)[C@@H](c3ccccc3)N2[C@@H](c2ccc(OCCOC(=O)[C@H]3C[C@H]4C(=O)NCC(=O)N4[C@H]3c3cccc(OCCO)c3)cc2)[C@]12C(=O)Nc1ccc(I)cc12`, in the assay on HSkMC (human skeletal muscle cells), the cytotoxicity call is “inactive”. For the same molecule, the growth inhibition call in the assay with S. aureus RN4220 is “inactive”.
Regarding `Cc1ccc(S(=O)(=O)Nc2cccc3c2O[C@@H](CN(C)Cc2ccc(C(F)(F)F)cc2)[C@@H](C)CN([C@H](C)CO)C3=O)cc1`, the cytotoxicity call with HSkMC is “inactive”. Also, in the assay on S. aureus RN4220, the growth inhibition call was “inactive”.
As for `Cc1ccc(S(=O)(=O)N(C)C[C@H]2Oc3ccc(NS(=O)(=O)c4c(C)noc4C)cc3C(=O)N([C@@H](C)CO)C[C@H]2C)cc1`, the cytotoxicity call with HSkMC is “inactive”. The growth inhibition call in the assay on S. aureus RN4220 is “inactive”.
